Reference: PubChem BioAssay AID485297 (National Center for Advancing Translational Sciences (NCATS), 2010)
Out of some 320,000 compounds screened, about 9,100 (2.8%) were called active. The inconclusive results got no clear call from the source; some entries with a clear call stand among them for comparison. Calls follow the shape of the dose curve; as a rule, active = well fitted activation curve with a large enough effect; inconclusive = small, poorly fitted or top-dose-only effect; inactive = no such curve, though single readings can be large or run the other way. Potencies of inconclusive entries are left out as doubtful fits.

Experiment: qHTS Assay for Rab9 Promoter Activators; also: nearly all actives have a fitted effect of over 60% in size; as to activation, negative = inhibition: % of control where 0% means no effect
Settings: Huh7 Rab9 promoter-luciferase reporter, luminescence, 24 h; series mostly up to 9.22 µM; activation, negative = inhibition: at the top concentration
In short: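 Luciferase signal after 10 min detection reagent at ambient indicates Rab9 promoter upregulation; stably transfected Huh7 cells were treated 24 h with compound in DMSO at 37 °C, 5% CO2.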
Potency is read from the fitted curve at half-maximal effect; tags tell the direction and shape of the fitted curve.

Row | SMILES | Potency | activation, negative = inhibition
1 | CCOC(=O)c1ccc(NC(=O)c2ccccc2C)cc1 | inconclusive [activator, partial curve] | 
2 | COC(=O)c1cccc(NC(=O)c2ccc3c(c2)C(=O)N(C(C)(C)C)C3=O)c1 | inconclusive [activator, partial curve] | 
3 | CCOc1ccc(-c2nc(-c3ccc(OC)c(OC)c3)no2)cc1OCC |  | inactive: -7.27%
4 | O=C(CSc1nc(=O)n(CCN2CCOCC2)c2c1CCCC2)Nc1cccc([N+](=O)[O-])c1 |  | inactive: -0.27%
5 | CCOc1ccc(-c2c(C(=O)N/N=C/C3CC=CCC3)nnn2-c2nonc2N)cc1 (stereo not drawn) |  | inactive: -3.24%
6 | CCC(C)(C)NC(=S)Nc1ccc(-c2nc3ccc(C)cc3s2)cc1 | active: 2.82 µM | 
7 | N#Cc1ccccc1CSc1nnc(-c2ccncc2)o1 | inconclusive [activator, partial curve] | 
8 | CC(C)(C)S(=O)(=O)c1cnc2c(-c3ccc(F)cc3)cnn2c1N | inconclusive [activator, partial curve] | 
9 | COC(=O)Cn1cc(/C=C/[N+](=O)[O-])c2ccccc21 | inconclusive [activator, single point] | 
10 | Cc1cc(C(=O)COc2ccc(F)cc2Br)c(C)n1C1CC1 | inconclusive [activator, single point] | 
11 | Cc1ccc(N=c2sc(C)c(C)n2C)cc1 | inconclusive [activator, single point] | 
12 | N#CC(=C1SC=CS1)c1nc(-c2ccccc2)cs1 | inconclusive [activator, single point] | 
13 | CCN1C(=O)c2ccc(C(=O)Nc3ncc(C)s3)cc2C1=O | inconclusive [activator, single point] | 
14 | CCSc1nc(-c2ccccc2)nc(C(Cl)Cl)n1 |  | inactive: -39.8%
15 | c1ccc(CSc2nnc(-c3ccncc3)o2)cc1 | inconclusive [activator, single point] | 
16 | Cc1cc(C(=O)NC2CCC(C)CC2)c(C)o1 (stereo not drawn) | active: 1.78 µM | 
17 | C=C(C)CN=C1NN=C(c2cc(C)n(-c3ccc(C)cc3)c2C)CS1 | inconclusive [activator, single point] | 
18 | CC1(C(=O)N2CC3(CC(c4cccc(NC(=O)CC(c5ccccc5)c5ccccc5)c4)=NO3)C[C@@H]2C(N)=O)CC1 (stereo partly drawn) |  | inactive: -1.17%
19 | CCCS/C(N)=N/N=C/c1cc(C)ccc1O | inconclusive [activator, partial curve] | 
20 | N#Cc1ccc(-c2cn3c(n2)SCC3)cc1 | inconclusive [activator, partial curve] | 
21 | O=C(CSc1nc2cc(Cl)ccc2o1)Nc1ccc(N2CCOCC2)cc1 | inconclusive [activator, partial curve] | 
22 | CCn1c(SCC(=O)c2ccccc2)nnc1-c1cnccn1 | inconclusive [activator, single point] | 
23 | CCCCCC(=O)Nc1ccc(-c2csc(C)n2)cc1 | inconclusive [activator, partial curve] | 
24 | CC(C)(C)NS(=O)(=O)c1cccc(S(=O)(=O)c2cccc(S(=O)(=O)NC(C)(C)C)c2)c1 | active: 1.58 µM | 
25 | CC(C)(C)C(=O)N1CCN(c2nc3ccccc3s2)CC1 | inconclusive [activator, partial curve] | 
26 | CCc1[nH]nc2c1C(c1cccc(OC(=O)N3CCOCC3)c1)C(C#N)=C(N)O2 (stereo not drawn) |  | inactive: 0.31%

Row | SMILES | Potency | activation, negative = inhibition
27 | O=C(CCN1C(=O)S/C(=C\C=C\c2ccccc2)C1=O)Nc1ccc(O)cc1 | active: 3.55 µM | 
28 | Cc1nc(NC(=O)c2cccc(-c3cc4ccccc4oc3=O)c2)ccc1Br | inconclusive [activator, single point] | 
29 | CC(C)Oc1ccc(C(=O)NC2CCCCC2)cc1 | active: 3.98 µM | 
30 | O=C(NCC1CCCO1)c1sc2ccccc2c1Cl (stereo not drawn) | inconclusive [activator, single point] | 
31 | COc1ccc(-c2cc(C(=O)O)c3ccccc3n2)c(OC)c1 |  | inactive: -0.686%
32 | CCOc1ccc(CCNC(=O)COC(=O)c2cccc(N(C)C)c2)cc1OCC | active: 1.58 µM | 
33 | CSCCC(NS(=O)(=O)c1ccc(Cl)c(Cl)c1)C(=O)O (stereo not drawn) | inconclusive [activator, single point] | 
34 | N#Cc1c(NCCO)ccc([N+](=O)[O-])c1NCCO | inconclusive [activator, single point] | 
35 | O=C(/C=C/c1ccco1)Nc1ccccn1 | inconclusive [activator, partial curve] | 
36 | Cc1cc2ccccc2n1CCNC(=O)c1cccs1 | inconclusive [activator, partial curve] | 
37 | COc1ccc(-c2csc(Nc3cccc(C)n3)n2)cc1 | active: 0.891 µM | 
38 | O=C1CCCC/C1=C/Nc1ccc(C(=O)O)cc1 | inconclusive [activator, partial curve] | 
39 | COc1ccc2cc3c(N)c(C(=O)N4CCCC4)sc3nc2c1 | active: 1.41 µM | 
40 | C#CCN(C)CCCOc1ccc(Cl)cc1Cl | inconclusive [activator, single point] | 
41 | C=CCn1c(-c2ccc(Cl)cc2)c[nH]c1=S |  | inactive: -10.5%
42 | O=C(COC(=O)CNS(=O)(=O)c1ccc(F)c(F)c1F)NCCc1ccccc1 | inconclusive [activator, partial curve] | 
43 | Cc1nc(/C(N)=N/OC(=O)c2ccc(Cl)cc2)c(C(F)(F)F)o1 |  | inactive: -2.99%
44 | Nc1nc(CSC(=S)N2CCOCC2)nc(Nc2ccccc2)n1 | active: 3.55 µM | 
45 | COc1ccccc1CNCc1cc(=O)oc2c(C)c(C)ccc12 |  | inactive: -0.0256%
46 | Cc1ccc(CC(=O)OC(C)C(=O)NC2CCCCC2C)cc1C (stereo not drawn) |  | inactive: -4.29%
47 | O=C(COC(=O)/C=C/c1ccccc1[N+](=O)[O-])Nc1ccc(OCc2ccccc2)cc1 | inconclusive [activator, partial curve] | 
48 | O=C(NCCc1ccc(F)cc1)c1ccc([N+](=O)[O-])cc1 | active: 3.16 µM | 
49 | Cc1cc(/C(N)=N/OC(=O)c2ccc(Cl)cc2)no1 | active: 3.16 µM | 
50 | CC(C)Cn1cnc2c1c(=O)[nH]c(=O)n2Cc1ccccc1 |  | inactive: 1.74%
51 | CCCn1c(SCC(=O)NCc2ccccc2)n[nH]c1=O |  | inactive: 12.4%
52 | Cc1nc2cc3ccccc3cc2c(=O)[nH]1 | inconclusive [activator, partial curve] | 

Row | SMILES | Potency | activation, negative = inhibition
53 | Cc1nn(-c2ccc(N3CCCCC3)nn2)c(C)c1CCC(=O)Nc1cc(F)ccc1F | inconclusive [activator, single point] | 
54 | Cc1ccc(C)c(N(CC(=O)Nc2ccccc2C(=O)NCc2ccco2)S(=O)(=O)c2ccccc2)c1 |  | inactive: 0.889%
55 | CCc1c(C)nc(Nc2nc(C)c3cc(OC)ccc3n2)[nH]c1=O | inconclusive [activator, partial curve] | 
56 | Oc1ccccc1-c1nc2c3ccccc3c3ccccc3c2[nH]1 | inconclusive [activator, partial curve] | 
57 | NS(=O)(=O)c1c(Sc2ccccc2C(=O)O)ccc2ccccc12 | inconclusive [activator, partial curve] | 
58 | CCCNC(=O)c1ccccc1NC(=O)CN(c1ccccc1)S(=O)(=O)N(C)C |  | inactive: -0.468%
59 | Cc1ccc(/C=C/C(=O)NC2CCCCCCC2)o1 | inconclusive [activator, single point] | 
60 | COc1ccc(NC(=O)Nc2nnc(C(C)C)s2)cc1 | inconclusive [activator, partial curve] | 
61 | O=C(CCSc1ccc(Cl)cc1)N1CCCCCC1 | active: 3.55 µM | 
62 | CC(C)CSc1nc(N2CCOCC2)c2c(c1C#N)CC(C)(C)SC2 | inconclusive [activator, single point] | 
63 | N#Cc1ccccc1NC(=O)Nc1ccc(Cl)cc1 |  | inactive: 8.73%
64 | CC(=O)Oc1ccccc1N(C(C)=O)S(=O)(=O)c1ccc2ccccc2c1 |  | inactive: 8.52%
65 | CC(=O)Nc1ccc(NC(=O)CSc2nnc(NC(=O)c3cccc(F)c3)s2)cc1 | active: 3.16 µM | 
66 | Cc1ccc2nc(NC(=O)C3CCCN(S(=O)(=O)c4cccc5nsnc45)C3)sc2c1 (stereo not drawn) |  | inactive: 7.1%
67 | O=C(c1ccco1)N1CCN(C(=S)Nc2ccccc2C(F)(F)F)CC1 |  | inactive: 0.973%
68 | Cc1ccccc1SCC(=O)OCC(=O)NCCNC(=O)COC(=O)CSc1ccccc1C |  | inactive: -3.96%
69 | CCn1c(C)nc2cc(C(=O)NNC(=S)Nc3ccccc3)ccc21 | active: 0.794 µM | 
70 | CCN(C(=O)COC(=O)c1cccnc1Nc1ccccc1F)C1CCS(=O)(=O)C1 (stereo not drawn) | inconclusive [activator, partial curve] | 
71 | COC(=O)c1c(C(=O)OC)c2cc(C(=O)c3ccccc3)ccn2c1Cl |  | inactive: 5.79%
72 | Cc1cc(C(=O)NNC(=S)Nc2ccccc2)nn1C | inconclusive [activator, single point] | 
73 | COc1ccccc1C(=O)Nc1ccc(Br)cc1C | inconclusive [activator, single point] | 
74 | COc1cc(C)ccc1OCc1cc(C(=O)N2CCN(C3CCCCC3)CC2)no1 | inconclusive [activator, partial curve] | 
75 | COc1cccc(OCc2cc(C(=O)N3CCN(C(=O)c4ccco4)CC3)no2)c1 | inconclusive [activator, single point] | 
76 | COc1ccc(NC(=O)c2onc(C)c2Cl)cc1OC |  | inactive: 14%
77 | Cc1cccc(-n2cc(-c3ccc([N+](=O)[O-])cc3)[nH]c2=S)c1 | inconclusive [activator, partial curve] | 
78 | Oc1ccc(/C=N/Nc2cccc3cccnc23)c(O)c1 | active: 3.16 µM | 
